Reference: PubChem BioAssay AID686979 (National Center for Advancing Translational Sciences (NCATS), 2013)
Hit rate of the full screen: of about 420,000 compounds, about 50,000 (12%) were called active. The inconclusive results got no clear call from the source; some entries with a clear call stand among them for comparison. Calls follow the shape of the dose curve; as a rule, active = well fitted inhibition curve with a large enough effect; inconclusive = small, poorly fitted or top-dose-only effect; inactive = flat fitted curve, though single readings scatter. Potencies of inconclusive entries are left out as doubtful fits.

Assay: qHTS for Inhibitors of human tyrosyl-DNA phosphodiesterase 1 (TDP1): qHTS in cells in presence of CPT; also: nearly all actives have a fitted effect of over 55% in size
Conditions: chicken DT40 Tdp1-/-;hTDP1 cells + 20 nM CPT, ATP luminescence, 48 h; activity change, negative = growth inhibition: at 46.2 µM (top of the series) unless noted
Summary of the method: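 Chicken DT40 Tdp1-/- cells complemented with human TDP1, 400 cells/well, exposed to compounds plus 20 nM camptothecin for at least 48 h at 37 C; viability read as ATP content by CellTiter-Glo luminescence.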
% is scaled to controls: 0 for no effect and ±100 for the full control effect; potency is read from the fitted curve at half-maximal effect; tags tell the direction and shape of the fitted curve.

Structure (SMILES) | Potency | activity change, negative = growth inhibition
COc1cccc(CC(=O)Nc2ccc3nc(Nc4cccc(C(F)(F)F)c4)cc(C)c3c2)c1 | inconclusive [inhibitor, single point] | 
C[N+]1(CC(=O)Nc2ccccc2Cl)CCN(C(=O)c2cccs2)CC1 | inactive | 
COc1ccc(CC(=O)c2ccc(OC)c(OC)c2C)cc1OC | inconclusive [inhibitor, single point] | 
CCOC(=O)/C(C(=Nc1ccccc1)Nc1ccccc1)=C(\C)O | inconclusive [inhibitor, single point] | 
O=C(CSc1nc(C(F)(F)F)cc(=O)[nH]1)N1CCC(Cc2ccccc2)CC1 | inactive | 
CCCCOc1ccccc1P(=O)(O)CP(=O)(c1ccccc1)c1ccccc1 | inconclusive [inhibitor, partial curve] | 
O=C(CNc1ccccc1F)Nc1cc(S(=O)(=O)N2CCCCC2)ccc1Cl | inactive | 
N#CC1=C(N)Oc2cc(N)ccc2C1c1ccc(F)cc1 (stereo not drawn) | inconclusive [inhibitor, single point] | 
CC(=O)OC1CC2(C)C(CCC2(O)C(C)=O)C2CCC3C(Cl)C(=O)CCC3(C)C12 (stereo not drawn) | inconclusive [inhibitor, single point] | 
CN(Cc1ccccc1)c1ncnc2sccc12 | inconclusive [inhibitor, single point] | 
Cc1ccc(S(=O)(=O)N2CCc3cc(C(=O)Nc4c(C)cccc4C(C)C)ccc32)cc1 | inconclusive [inhibitor, partial curve] | 
COc1ccc(CN2Cc3ccccc3OC(c3ccccc3OC)C2)c(O)c1 (stereo not drawn) |  | inactive: -0.617% [at 9.04 µM]
Cc1cccc(Cn2c(CN3CCCC(C)C3)nc3c2c(=O)n(C)c(=O)n3C)c1 (stereo not drawn) | inconclusive [inhibitor, single point] | 
COCC(=O)N1CCC2(CC1)CCN(C(=O)Nc1cccc(C#N)c1)CC2 | inactive | 
CNc1nc(-c2ccc3c(c2)CCN3C(=O)c2ccccc2C)cs1 | inconclusive [inhibitor, single point] | 
C/C(=N\NC(=O)C1(C)CC1(Br)Br)c1ccc(C)cc1C (stereo not drawn) | inactive | 
CCOc1ccc(CCNC(=O)c2nn(C)c3c2CSc2ccc(C)cc2-3)cc1OCC | inconclusive [inhibitor, single point] | 
C[C@@H]1CN(Cc2ccc3c(c2)CN(Cc2cccn2-c2cccnc2)CCO3)C[C@H](C)O1 |  | inactive: -2% [at 9.04 µM]
CCOC(=O)c1c(-n2c(C)cc(C=O)c2C)sc2c1CCCC2 | active: 15.8 µM | 
C/C(Cn1cnc([N+](=O)[O-])n1)=N\NC(=O)c1ccc(Br)cc1 | inactive | 
CC(=O)Nc1ccc(S(=O)(=O)NC(C)c2nc(-c3ccccc3)no2)cc1 (stereo not drawn) | inactive | 
COc1ccc(CCNc2nc(SCc3cccc(Cl)c3)nc3ccccc23)cc1OC | inconclusive [inhibitor, single point] | 
O=[N+]([O-])c1ccccc1C1Nc2cccc3cccc(c23)N1 | active: 7.31 µM | 
COCCCNC(=O)c1ccc(-n2c(-c3ccccc3)cc3c2CCCCC3)cc1 | inconclusive [inhibitor, single point] | 
Cc1cccc(NC(=O)NNC(=O)c2cc(-c3ccccc3Cl)nc3ccccc23)c1 | inconclusive [inhibitor, partial curve] | 

Structure (SMILES) | Potency | activity change, negative = growth inhibition
C/C(=N/Nc1nc(C)cc(C)n1)c1ccc(Br)cc1 | inconclusive [inhibitor, single point] | 
CCCCOC(=O)Cn1c(=O)c2c(nc3n2CCCCN3c2ccc(C)cc2)n(C)c1=O | inconclusive [inhibitor, single point] | 
O=C(c1nnc(-c2ccncc2)o1)c1ccccc1Cl | inactive | 
COc1ccc2cc(C(=O)C3CCCN(C(=O)c4snnc4C)C3)ccc2c1 (stereo not drawn) | active: 16.4 µM | 
CCOC(=O)c1c(NC(=O)CSc2cn(CCNC(=O)c3ccc(OCC)cc3)c3ccccc23)sc2c1CCC2 | inactive | 
Cc1ccc(Cl)cc1NC(=O)Cn1c(SCC(=O)NCc2ccccc2)nc2ccccc21 | inconclusive [inhibitor, partial curve] | 
CCc1nonc1NC(=O)c1oc2ccc(Cl)cc2c1C | inactive | 
O=C1C(Oc2ccccc2)C(c2cccs2)N1Cc1ccc2c(c1)OCO2 (stereo not drawn) | inactive | 
CCOCCn1c(SCCCc2ccccc2)nc2c1c(=O)[nH]c(=O)n2C | inconclusive [inhibitor, single point] | 
O=C(CN(Cc1ccco1)C(=O)Cn1nnc(-c2ccc(F)cc2)n1)NC1CCCC1 | inconclusive [inhibitor, single point] | 
Clc1ccc2nc(-c3cccs3)c(Nc3ccc4c(c3)OCCO4)n2c1 | inconclusive [inhibitor, single point] | 
CN(CCc1ccccc1)C(=O)c1cc(COc2ccc(F)cc2Cl)on1 | inactive | 
COCCn1c(C)cc(C2=NNC(=NC(C)(C)C)SC2)c1C | inactive | 
CCC(Sc1nc(-c2ccccc2)c(-c2ccccc2)[nH]1)C(=O)O (stereo not drawn) | inactive | 
CC(Sc1ncn[nH]1)C(=O)Nc1cc(C(F)(F)F)ccc1Cl (stereo not drawn) | inactive | 
COCCNC(=S)N/N=C/c1ccc(N2CCOCC2)cc1 | inconclusive [inhibitor, single point] | 
N#Cc1ccc(CN2CC[C@@]3(CCCN(C(=O)c4cc(C(F)(F)F)cc(C(F)(F)F)c4)C3)C2)cc1 | inconclusive [inhibitor, single point] | 
O=C(CNC(=O)C1COc2ccccc2O1)N/N=C/c1cc(Br)c(O)c(Br)c1 (stereo not drawn) | inconclusive [inhibitor, single point] | 
CC1Cc2cc(S(=O)(=O)NCc3ccccc3)ccc2N1C(=O)C1CCC1 (stereo not drawn) | active: 20.6 µM | 
CCOC(=O)N1CCc2cc(OC)c(OC)c3c2c1cc1cc(OC)c(OC)cc13 | inconclusive [inhibitor, single point] | 
CC(C)NS(=O)(=O)c1ccc(Oc2ncc(C(F)(F)F)cc2Cl)cc1 | inconclusive [inhibitor, single point] | 
CC(=O)Nc1ccc(S(=O)(=O)N[C@@H](C)C(=O)N2CCN(c3ccccn3)CC2)cc1 | inactive | 
COc1ccc(NC(=O)N2CCN(S(C)(=O)=O)CC2)cc1 | active: 23.1 µM | 
Cc1ccc2c(c1)C(=O)C1(O)CCN(c3ccccc3)C1=N2 (stereo not drawn) | active: 8.91 µM | 
O=C(CC12CC3CC(CC(C3)C1)C2)Nc1ccc2c(c1)COC2=O | active: 13 µM | 

Structure (SMILES) | Potency | activity change, negative = growth inhibition
CN(C)N1C(=O)/C(=C/c2ccco2)SC1=Nc1ccccc1 | inactive | 
CCCCCCCCCCCCCCCCCC(=O)OCCO | inconclusive [inhibitor, partial curve, poor fit] | 
CN(c1ccccc1)S(=O)(=O)c1cccc(NS(=O)(=O)c2cccc(C(=O)O)c2)c1 | inactive | 
O=C(CSc1ccc2ccccc2n1)NCCCN1CCCC1=O | inactive | 
Cc1nc2c(Br)cc(Br)cc2cc1O | inconclusive [inhibitor, single point] | 
COC(=O)C1=CN(c2cccc(C(F)(F)F)c2)C=C(C(=O)OC)C1c1ccc(O)c(OC)c1 | inconclusive [inhibitor, single point] | 
CC(C)c1ccc(Nc2ncc3c(n2)CCN(C(=O)Nc2ccc(F)c(Cl)c2)C3)cc1 | inconclusive [inhibitor, single point] | 
CN(C)CCCN(C(=O)c1ccc(C(=O)c2ccccc2)cc1)c1nc2c(F)cccc2s1 | inactive | 
NC(=O)C1CCN(C(=O)CCNS(=O)(=O)c2ccccc2F)CC1 | inactive | 
CCCNC(=O)C1CCN(c2ccc(S(=O)(=O)N3CCOCC3)cc2Cl)CC1 | active: 14.6 µM | 
COC(=O)c1ccc2c(=O)n(CCN3CCOCC3)c(SCC(=O)Nc3ccccc3Cl)nc2c1 | inconclusive [inhibitor, single point] | 
Cc1nn(CC2CC2)c(=O)n1N(C)c1ncc(C(F)(F)F)cc1Cl | inconclusive [inhibitor, partial curve] | 
c1ccc(OCCOCCN2CCOCC2)cc1 | inactive | 
Cc1ccc(-n2nnnc2CNC(=O)c2ccc(F)cc2)cc1C | inactive | 
Nc1ncnc(Oc2cccc3cccnc23)c1[N+](=O)[O-] | inconclusive [inhibitor, single point] | 
CN(C)c1cccc(C(=O)NCC2Cc3cccc(-c4cncnc4)c3O2)c1 (stereo not drawn) |  | inactive: -7.92% [at 9.04 µM]
CCc1nc2ccc(C(=O)NCc3cccs3)cn2c1N(CC)CCN(C)C | inactive | 
Brc1ccc(CNCCCSc2nnnn2-c2ccccc2)cc1 | inconclusive [inhibitor, single point] | 
CCOC(=O)Cc1csc(NC(=O)CSc2ncnc3c2cnn3-c2ccc(OC)cc2)n1 | inconclusive [inhibitor, single point] | 
O=C(/C=C/c1ccccc1)Oc1cccc2cccnc12 | inconclusive [inhibitor, single point] | 
O=C(Nc1ccccc1NC(=O)NC1CCCCC1)NC1CCCCC1 | inconclusive [inhibitor, single point] | 
O=C(Nc1ccc(Cl)c(Cl)c1)Oc1ccc(NC(=O)c2ccco2)cc1 | inconclusive [inhibitor, single point] | 
CCOC(=O)c1sc2nc(C)nc(SCC(=O)NC(C)CCc3ccccc3)c2c1C (stereo not drawn) | inconclusive [inhibitor, single point] | 
